{
  "source": "paper PMC4336329",
  "about": "(PLoS ONE, 2015)",
  "note": "Hit rate of the full screen: of about 310,000 compounds, about 14,000 (4.5%) showed an effect of 50% or more. The effect is printed as a negative number. The list shows a part of the results.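 Further: peak tail current of the secondary pulse compared with the same well before compound.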",
  "data": [
    {"target": "human ether-à-go-go-related gene (hERG) potassium channel (human, UniProt Q12809)", "sequence (Q12809 whole entry, looked up)": "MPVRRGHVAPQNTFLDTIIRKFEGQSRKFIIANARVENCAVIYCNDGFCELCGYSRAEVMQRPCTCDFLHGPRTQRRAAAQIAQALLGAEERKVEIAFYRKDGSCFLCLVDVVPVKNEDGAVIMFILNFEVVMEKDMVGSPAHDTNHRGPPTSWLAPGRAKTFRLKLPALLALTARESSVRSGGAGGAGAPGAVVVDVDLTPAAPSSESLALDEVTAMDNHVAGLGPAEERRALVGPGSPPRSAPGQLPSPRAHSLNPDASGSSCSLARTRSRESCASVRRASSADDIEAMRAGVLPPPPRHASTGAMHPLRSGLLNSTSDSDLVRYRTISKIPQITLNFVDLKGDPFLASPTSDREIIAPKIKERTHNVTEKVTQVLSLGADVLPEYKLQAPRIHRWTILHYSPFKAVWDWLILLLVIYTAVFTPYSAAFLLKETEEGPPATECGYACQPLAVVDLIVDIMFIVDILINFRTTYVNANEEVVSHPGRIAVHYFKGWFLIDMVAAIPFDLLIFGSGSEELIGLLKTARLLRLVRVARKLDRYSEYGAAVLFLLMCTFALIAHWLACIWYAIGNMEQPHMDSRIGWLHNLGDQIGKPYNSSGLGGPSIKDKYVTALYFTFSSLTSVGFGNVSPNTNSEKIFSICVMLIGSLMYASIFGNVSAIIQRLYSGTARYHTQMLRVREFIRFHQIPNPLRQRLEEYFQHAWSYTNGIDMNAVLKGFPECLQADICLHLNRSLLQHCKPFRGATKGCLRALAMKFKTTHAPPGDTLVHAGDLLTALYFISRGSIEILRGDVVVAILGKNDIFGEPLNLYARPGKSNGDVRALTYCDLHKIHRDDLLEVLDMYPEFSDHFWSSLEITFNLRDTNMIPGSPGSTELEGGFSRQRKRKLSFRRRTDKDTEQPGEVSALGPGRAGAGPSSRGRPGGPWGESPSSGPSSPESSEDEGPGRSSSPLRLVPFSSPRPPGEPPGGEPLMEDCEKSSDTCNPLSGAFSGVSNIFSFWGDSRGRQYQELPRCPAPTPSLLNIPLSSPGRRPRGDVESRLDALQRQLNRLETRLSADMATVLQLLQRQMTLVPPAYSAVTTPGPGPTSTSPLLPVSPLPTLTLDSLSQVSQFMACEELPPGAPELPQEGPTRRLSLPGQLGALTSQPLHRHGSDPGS", "test": "primary screen, population patch clamp on CHO cells stably expressing hERG", "units": {"hERG current change (%, negative = inhibition) at 10uM": "%"}, "values": [
      {"smiles": "O=C(NCCCn1ccnc1)c1cc(-c2ccc(Cl)cc2)nc2ccccc12", "hERG current change (%, negative = inhibition) at 10uM": -68.8},
      {"smiles": "COc1cc(-c2nc3ccccc3c(=O)n2N)cc(OC)c1OC", "hERG current change (%, negative = inhibition) at 10uM": 9.53},
      {"smiles": "Cn1c(SCC(=O)N/N=C/c2cccnc2)nnc1-c1ccccc1", "hERG current change (%, negative = inhibition) at 10uM": 17.4},
      {"smiles": "CCOC(=O)C1CCN(C(=O)c2oc3ccc4c(c3c2C)C(O)CC2(CCCCC2)O4)CC1", "note": "(centres unmarked)", "hERG current change (%, negative = inhibition) at 10uM": 0.656},
      {"smiles": "COc1ccc(OCC(=O)N2c3ccccc3CCc3ccccc32)cc1", "hERG current change (%, negative = inhibition) at 10uM": -1.14},
      {"smiles": "O=C(N/N=C/c1ccc(-c2ccc([N+](=O)[O-])cc2)o1)C(O)c1ccccc1", "note": "(centres unmarked)", "hERG current change (%, negative = inhibition) at 10uM": -41},
      {"smiles": "COc1ccc(Cc2nc(-c3ccc(Br)o3)no2)cc1OC", "hERG current change (%, negative = inhibition) at 10uM": -23.2},
      {"smiles": "CCCN(CC(=O)Nc1ccccc1C)C(=O)COc1c(C)cccc1C", "hERG current change (%, negative = inhibition) at 10uM": -4.72},
      {"smiles": "Cc1nn(Cc2ccc(Cl)cc2Cl)c(C)c1NC(=O)c1sc2ccccc2c1Cl", "hERG current change (%, negative = inhibition) at 10uM": 5.36},
      {"smiles": "CC(C)(C)c1ccc(-n2ncc3c2CCCC3NC(=O)c2ccncc2)cc1", "note": "(centres unmarked)", "hERG current change (%, negative = inhibition) at 10uM": -12.3},
      {"smiles": "O=C(Nc1ccc(Br)cc1)c1ccco1", "hERG current change (%, negative = inhibition) at 10uM": 0.736},
      {"smiles": "COCOc1ccc(C2CC(=O)c3c(OCOC)cc(OCOC)cc3O2)cc1", "note": "(centres unmarked)", "hERG current change (%, negative = inhibition) at 10uM": -6.2},
      {"smiles": "COC(=O)c1n[nH]nc1-c1ccccc1", "hERG current change (%, negative = inhibition) at 10uM": -8.76},
      {"smiles": "Cc1cccc(CSc2nc3ccncc3n2CC(=O)Nc2cc(C)cc(C)c2)c1", "hERG current change (%, negative = inhibition) at 10uM": 9.09},
      {"smiles": "O=C1CCCCCCCCCC/C(=N\\O)CCCO1", "hERG current change (%, negative = inhibition) at 10uM": 5.78},
      {"smiles": "O=C1/C(=C\\c2cc3c(cc2Cl)OCO3)N2CCC1CC2", "hERG current change (%, negative = inhibition) at 10uM": 4.47},
      {"smiles": "CC1(C)Oc2ccc3ccc(=O)oc3c2/C(=C/NC2CCCCC2)C1=O", "hERG current change (%, negative = inhibition) at 10uM": -4.76},
      {"smiles": "O=C(Nc1ccc2c(c1)COC2=O)c1ccc(Cl)c(Cl)c1", "hERG current change (%, negative = inhibition) at 10uM": 24},
      {"smiles": "CCOC(=O)N1CCN(C(=O)c2cn(CC)c3ccc(S(=O)(=O)N(C)C4CCCCC4)cc3c2=O)CC1", "hERG current change (%, negative = inhibition) at 10uM": -17.3},
      {"smiles": "CC(C)c1ccc(OCC(O)CN2CCCC2)cc1.Cl", "note": "(centres unmarked)", "hERG current change (%, negative = inhibition) at 10uM": -11.1},
      {"smiles": "Cn1c(=O)n(CC(=O)O)c(=O)c2c1nc1n2CCS1", "hERG current change (%, negative = inhibition) at 10uM": -5.66},
      {"smiles": "O=c1[nH]c(C2CCN(S(=O)(=O)Cc3ccccc3)CC2)nc2c1nnn2Cc1cccc(Cl)c1", "hERG current change (%, negative = inhibition) at 10uM": -0.44},
      {"smiles": "COCCNC(=O)/C(C#N)=C/c1ccc(OCC(=O)NC2CCCCC2)cc1", "hERG current change (%, negative = inhibition) at 10uM": -0.168},
      {"smiles": "CN(C)C(=O)CCC(=O)N1CCCCC1C(=O)Nc1ccc(Oc2ccccc2F)cc1", "note": "(centres unmarked)", "hERG current change (%, negative = inhibition) at 10uM": -43.9},
      {"smiles": "O=C(Cc1ccc([N+](=O)[O-])cc1)Nc1cccnc1", "hERG current change (%, negative = inhibition) at 10uM": -14.3},
      {"smiles": "CCCN(CC(=O)Nc1ccccc1OC)C(=O)c1cc(-c2ccccc2)nn1-c1ccccc1", "hERG current change (%, negative = inhibition) at 10uM": -2.6},
      {"smiles": "Cc1cccc(C(=O)Nc2scc(CC(C)C)c2C(=O)O)c1", "hERG current change (%, negative = inhibition) at 10uM": 25.6},
      {"smiles": "Cc1[nH]c2ccccc2c1CN1CCC(CO)(Cc2ccccc2)CC1", "hERG current change (%, negative = inhibition) at 10uM": -47.6},
      {"smiles": "CCOC(=O)C1CCCN(C(=O)c2cccc(S(=O)(=O)N3CC(C)OC(C)C3)c2)C1", "note": "(centres unmarked)", "hERG current change (%, negative = inhibition) at 10uM": 5.34},
      {"smiles": "CC(C(N)=O)N1CC(c2ccc(Cl)cc2)CC1=O", "note": "(centres unmarked)", "hERG current change (%, negative = inhibition) at 10uM": -10.8},
      {"smiles": "CCc1ccc(NC(=O)COc2coc(CN3CCc4ccccc4C3)cc2=O)cc1", "hERG current change (%, negative = inhibition) at 10uM": -20.8},
      {"smiles": "Cc1cccc(C)c1NC(=O)c1ccc(-c2ccc(Cl)cc2Cl)o1", "hERG current change (%, negative = inhibition) at 10uM": -10.8},
      {"smiles": "CCCC(=O)N1CC(=O)Nc2ccc(F)cc2C1c1ccccc1", "note": "(centres unmarked)", "hERG current change (%, negative = inhibition) at 10uM": -2.26},
      {"smiles": "CS(=O)(=O)Cc1ccc(C(=O)NC2CCCc3ccccc32)cc1", "note": "(centres unmarked)", "hERG current change (%, negative = inhibition) at 10uM": 8.72},
      {"smiles": "Cc1cccc(N2CCN(C(=O)Cn3c(=O)[nH]c4ccsc4c3=O)CC2C)c1", "note": "(centres unmarked)", "hERG current change (%, negative = inhibition) at 10uM": 12.7},
      {"smiles": "CCCCCOC(=O)NC1CCS(=O)(=O)C1", "note": "(centres unmarked)", "hERG current change (%, negative = inhibition) at 10uM": 14},
      {"smiles": "Cc1ccccc1S(=O)(=O)Nc1nc2ccccc2nc1NCCO", "hERG current change (%, negative = inhibition) at 10uM": 18.5},
      {"smiles": "CC(C)Cn1c(Cc2ccccc2)n[nH]c1=S", "hERG current change (%, negative = inhibition) at 10uM": -3.27},
      {"smiles": "CC(C)CNC(=S)N1CCN(c2nc3ccccc3s2)CC1", "hERG current change (%, negative = inhibition) at 10uM": 44.8},
      {"smiles": "Oc1ccc(Cl)cc1Cc1cc(Cl)ccc1O", "hERG current change (%, negative = inhibition) at 10uM": 14.3},
      {"smiles": "NC1=NCC(O)=C1c1nc2ccccc2[nH]1", "hERG current change (%, negative = inhibition) at 10uM": 11.5},
      {"smiles": "Cc1cc(C)n(CCNC(=O)C2CCC(=O)N(CC3CCCCC3)C2)n1", "note": "(centres unmarked)", "hERG current change (%, negative = inhibition) at 10uM": 17.5},
      {"smiles": "O=C(NC1CCCC1)c1ccc(COc2ccccc2Br)o1", "hERG current change (%, negative = inhibition) at 10uM": -41.4},
      {"smiles": "O=C(c1ccccn1)N1CCN(S(=O)(=O)c2cccc(Br)c2)CC1", "hERG current change (%, negative = inhibition) at 10uM": -6.02}
    ]}
  ]
}
